PubChem BioAssay AID1347165 (National Center for Advancing Translational Sciences (NCATS), 2019)
Hit rate of the full screen: of about 220,000 compounds, about 5,700 (2.6%) were called active. Inconclusive results, whose numbers are uncertain, are shown with a selection of clear calls. The call rests on the fitted dose curve; in most records, active means well fitted inhibition curve with a large enough effect; inconclusive means small, poorly fitted or top-dose-only effect; inactive means no such curve, though single readings can be large or run the other way. Where the call is inconclusive, the potency comes from a doubtful curve fit.

target: Lysine-specific demethylase 5B (Homo sapiens) (UniProt Q9UGL1); test: Primary screen for KDM5B Histone Demethylases FDH-coupled qHTS; conditions: FDH-coupled NADH fluorescence (FDH is formaldehyde dehydrogenase); activity change, negative = inhibition: at 57.7 µM (top of the series) unless noted; further: nearly all actives have a fitted effect of over 70% in size; on activity change, negative = inhibition: 0% is about no effect
Sequence of UniProt Q9UGL1 (Q9UGL1 whole entry, looked up): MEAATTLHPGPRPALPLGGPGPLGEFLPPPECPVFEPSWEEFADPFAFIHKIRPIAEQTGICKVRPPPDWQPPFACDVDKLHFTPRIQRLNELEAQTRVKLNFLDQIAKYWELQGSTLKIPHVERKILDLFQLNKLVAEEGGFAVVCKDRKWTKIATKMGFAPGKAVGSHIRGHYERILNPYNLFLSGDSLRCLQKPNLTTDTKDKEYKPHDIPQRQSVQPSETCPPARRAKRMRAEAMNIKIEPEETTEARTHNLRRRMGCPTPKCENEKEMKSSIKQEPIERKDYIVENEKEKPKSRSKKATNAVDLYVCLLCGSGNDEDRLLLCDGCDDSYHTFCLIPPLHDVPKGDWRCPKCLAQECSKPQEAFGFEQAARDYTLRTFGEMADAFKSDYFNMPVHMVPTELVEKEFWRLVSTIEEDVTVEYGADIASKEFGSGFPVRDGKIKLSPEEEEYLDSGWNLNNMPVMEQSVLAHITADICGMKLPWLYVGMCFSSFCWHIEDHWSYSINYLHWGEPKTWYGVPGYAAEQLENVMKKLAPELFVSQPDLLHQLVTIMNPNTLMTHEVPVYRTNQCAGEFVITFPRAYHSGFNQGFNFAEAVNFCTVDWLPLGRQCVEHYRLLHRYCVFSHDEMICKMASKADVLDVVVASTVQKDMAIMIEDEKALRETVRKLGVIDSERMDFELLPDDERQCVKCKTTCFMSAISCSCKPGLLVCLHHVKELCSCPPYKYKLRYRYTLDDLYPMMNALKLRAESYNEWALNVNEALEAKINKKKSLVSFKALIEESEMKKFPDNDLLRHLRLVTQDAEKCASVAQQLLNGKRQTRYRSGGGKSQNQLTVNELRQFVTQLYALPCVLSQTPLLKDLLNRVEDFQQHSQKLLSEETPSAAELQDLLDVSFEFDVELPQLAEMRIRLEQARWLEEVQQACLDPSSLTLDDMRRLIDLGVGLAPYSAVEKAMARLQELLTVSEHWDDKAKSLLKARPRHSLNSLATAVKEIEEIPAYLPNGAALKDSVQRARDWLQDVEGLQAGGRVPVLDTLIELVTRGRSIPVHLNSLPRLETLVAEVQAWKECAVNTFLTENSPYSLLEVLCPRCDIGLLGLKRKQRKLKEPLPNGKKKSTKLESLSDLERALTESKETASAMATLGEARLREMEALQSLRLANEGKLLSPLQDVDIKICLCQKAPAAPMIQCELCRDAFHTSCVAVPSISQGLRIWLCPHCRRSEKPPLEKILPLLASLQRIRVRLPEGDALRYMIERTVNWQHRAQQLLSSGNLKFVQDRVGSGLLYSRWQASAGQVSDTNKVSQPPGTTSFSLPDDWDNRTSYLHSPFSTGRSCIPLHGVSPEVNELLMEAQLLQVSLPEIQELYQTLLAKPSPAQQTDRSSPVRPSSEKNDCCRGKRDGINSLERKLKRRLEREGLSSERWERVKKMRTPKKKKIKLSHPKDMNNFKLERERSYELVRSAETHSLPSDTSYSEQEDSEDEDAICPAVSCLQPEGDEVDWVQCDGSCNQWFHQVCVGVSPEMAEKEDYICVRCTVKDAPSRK
Summary of the method: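 KDM5BΔAP (200 nM final) in 50 mM HEPES pH 7.5, 0.01% Tween-20 was preincubated 10 min at RT with compound over a concentration range. Substrate mix (H3K4me3 12.5 µM, α-KG 25 µM, Fe²⁺, ascorbate, NAD⁺, FDH) was added, and NADH fluorescence change over 30 min gave dose-response curves.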
Potency means the concentration at half of the fitted maximal effect; tags describe the fitted curve by direction and shape.

SMILES	Potency	activity change, negative = inhibition
CCc1ccc(-n2nc(CO)c(C(=O)NCc3cccs3)n2)cc1	inconclusive: 39.8 µM [inhibitor, single point]	–
COCC1CN(C)CC12CCN(C(=O)c1cc3ccccc3[nH]1)CC2 (stereo not given)	inconclusive: 15.8 µM [inhibitor, single point]	–
COc1ccc(-c2nc3ccc(Cl)cn3c2Nc2ccc(C)cc2)cc1	inconclusive: 1.41 µM [inhibitor, full curve, poor fit]	–
COc1ccc(-c2cc(-c3cccc(C(N)=O)c3)cn3cncc23)cc1	inconclusive: 35.5 µM [inhibitor, partial curve, poor fit]	–
Cn1cc(CN2Cc3c(cc(N4CCOCC4)nc3-c3ccc(CO)cc3)C2=O)cn1	active: 35.5 µM	–
Oc1ccc(Br)cc1C=Nc1ccccc1C(F)(F)F	inactive	–
CNC(=O)c1ccc(-c2nc(CN3CCN(C(=O)Nc4ccccc4)CC3)c(C)o2)cc1	inactive	–
CC(C)c1ccc(NC(=O)c2cnc3sc(N4CCOCC4)nn3c2=O)cc1	–	inconclusive: -35.5% [inhibitor]
NS(=O)(=O)c1ccc(NC(=O)c2csnn2)cc1	inconclusive: 28.2 µM [inhibitor, single point]	–
Cc1nn(C)c2nc(OC(C)C(=O)Nc3ccccc3F)cc(-c3ccccc3)c12 (stereo not given)	inactive	–
O=C(NCC1Cn2cccc2CN1Cc1cccnc1)Nc1ccccc1 (stereo not given)	inconclusive: 14.1 µM [inhibitor, partial curve]	–
COc1ccc(-c2ccnc3nc(-c4cccs4)nn23)cc1OC	inconclusive: 3.16 µM [inhibitor, partial curve, poor fit]	–
COCC[C@]1(O)CCN(C(=O)CCCc2ccccc2)C[C@H]1C	inactive	–
Cc1cc(C)cc(NC(=O)COCc2cc(-c3ccc4c(c3)OCO4)on2)c1	inconclusive: 31.6 µM [inhibitor, partial curve, poor fit]	–
O=C(NCC(c1ccco1)N1CCCC1)c1cccc(S(=O)(=O)N2CCOCC2)c1 (stereo not given)	inconclusive: 44.7 µM [inhibitor, partial curve, poor fit]	–
Cc1ccc(-n2ncc3c(Nc4cccc(C(F)(F)F)c4)ncnc32)cc1C	inconclusive: 31.6 µM [inhibitor, partial curve, poor fit]	–
Cn1ccnc1CN1C[C@@H]2C[C@H]1C(=O)N(Cc1cccnc1)c1ccccc1O2	inconclusive: 28.2 µM [inhibitor, single point]	–
COCCn1c(C)cc(O)c(C(c2ccc(OC)cc2)N2CCN(c3ccccc3)CC2)c1=O (stereo not given)	inconclusive: 39.8 µM [inhibitor, single point]	–
Cc1ccc(C)c(-n2nnc(C(=O)Nc3ccc(Br)cc3)c2C)c1	inconclusive: 35.5 µM [inhibitor, single point]	–
CN(C)CCCNc1nc(-c2ccco2)c2c(c1C#N)CCCC2	inconclusive: 10 µM [inhibitor, partial curve, poor fit]	–
CCN1CCCC1CNC(=O)c1cc(N)ccc1OC (stereo not given)	inconclusive: 10 µM [inhibitor, partial curve, poor fit]	–
COC(=O)[C@@H](CCSC)NC(=O)Nc1ccc(OC)c(Cl)c1	inactive	–
Cc1noc(C)c1[S+](=O)([O-])N1CCC(N2CCC[S+]2(=O)[O-])CC1	inactive	–
COc1ccc(C(=O)c2sc(Nc3ccccc3)c(C(N)=O)c2N)cc1	inconclusive: 39.8 µM [inhibitor, single point]	–

SMILES	Potency	activity change, negative = inhibition
O=C(Nc1cc(Cl)cc(Cl)c1)c1cc(S(=O)(=O)N2CCC3(CC2)OCCO3)ccc1F	inconclusive: 39.8 µM [inhibitor, single point]	–
Cc1cc(C)c(NC(=O)COC(=O)c2ccccc2)c(Cl)c1	inactive	–
CCOCCCNC(=O)c1c(NC(=O)c2nc(SC)ncc2Cl)sc2c1CCCC2	inconclusive: 28.2 µM [inhibitor, partial curve, poor fit]	–
Cc1cn2c(=O)cc(COC(=O)c3ccc(NC(=O)C(C)Oc4ccccc4)cc3)nc2s1 (stereo not given)	inactive	–
O=C(c1ccc2cccnc2c1O)N1CCCC(CCc2ccccc2F)C1 (stereo not given)	active: 11.2 µM	–
CNC(=O)CCn1ncc2cc(OC3CCc4cccc(-c5cccnc5OC)c43)ccc21 (stereo not given)	inconclusive: 5.01 µM [inhibitor, partial curve]	–
O=S1(=O)CCN(Cc2cn(C[C@H]3C[C@@H](NCc4ccc(F)cc4)[C@H](O)[C@@H]3O)nn2)CC1	inconclusive: 20 µM [inhibitor, partial curve, poor fit]	–
CC(=O)Nc1ccc2nc(SCc3ccc(Cl)cc3)sc2c1	inactive	–
CN(C)C[C@@H]1CN(Cc2cccnc2)C[C@H]1NC(=O)c1ccc(Cl)s1	inconclusive: 31.6 µM [inhibitor, single point]	–
Cc1cc(C)cc(NC(=O)C(c2ccccc2)n2cnc3c2c(=O)n(C)c(=O)n3C)c1 (stereo not given)	inactive	–
Cc1[nH]c2ccc(Cl)cc2c1C(=O)CCl	inactive	–
CCn1nnc2cc(C(=O)Nc3ccc(OC)cc3)ccc21	inactive	–
COc1ccc(C(=O)Nc2oc3ccc(Cl)cc3c(=O)c2-c2ccccc2)cc1OC	inactive	–
O=C1Nc2ccccc2CC12CCN(Cc1cccc3ccccc13)C2 (stereo not given)	inconclusive: 31.6 µM [inhibitor, partial curve]	–
CC(=O)NCc1ccc(-c2csc(-c3ccccc3)n2)o1	inconclusive: 39.8 µM [inhibitor, partial curve, poor fit]	–
O=CNC12CCC3CC(CC(C3)C1)C2	inactive	–
Cc1ccccc1C(=O)OCCCN(C)C	inactive	–
O=C(c1ccco1)N1CCC(n2cnnc2-c2ccccc2)CC1	inactive	–
COc1cccc(-n2cc(CN(C)c3nccc(-c4cccnc4)n3)cn2)c1	inconclusive: 31.6 µM [inhibitor, partial curve, poor fit]	–
CC(C)NC(=O)CNC(=O)c1cc(-c2ccc(F)cc2)nc2ccccc12	inconclusive: 22.4 µM [inhibitor, partial curve, poor fit]	–
CC1=C[C@@H](CNC(=O)COCC(=O)O)[C@H](C(C)C)C[C@H]1CC(=O)N1CCCC1	inconclusive: 39.8 µM [inhibitor, partial curve, poor fit]	–
Cc1ccc(S(=O)(=O)Nc2ccc3ccccc3n2)cc1	inconclusive: 31.6 µM [inhibitor, partial curve, poor fit]	–
Cc1nn(C)c2c1c(C(F)(F)F)cc(=O)n2C(C)C(=O)NCCC(C)C (stereo not given)	inconclusive: 28.2 µM [inhibitor, partial curve, poor fit]	–
O=C(c1ccccc1)N1CCC2(CC1)CCN(Cc1cccs1)c1ccccc1O2	inconclusive: 7.94 µM [inhibitor, partial curve]	–

SMILES	Potency	activity change, negative = inhibition
CC1Oc2ccc(NC(=O)c3ccccc3F)cc2CN(Cc2ccc(Cl)cc2)C1=O (stereo not given)	inconclusive: 28.2 µM [inhibitor, partial curve, poor fit]	–
COc1ccc(C2=NC(C(F)(F)F)(C(F)(F)F)N=C(N(C)C)O2)cc1	inactive	–
C#CCN(C)Cc1nc(C2(O)CCN(C3CCC3)CC2)cs1	inactive	–
CCN1CCN(C(=O)C2CC(C)=C(C)CC2C(=O)O)CC1 (stereo not given)	inactive	–
CNC(=O)c1ccc2ccnn2c1	active: 35.5 µM	–
CN1CCN(C(=O)Cn2c(-c3cccs3)cc3ccccc32)CC1	inconclusive: 31.6 µM [inhibitor, partial curve, poor fit]	–
COc1cc(OC)cc(C(=O)Nc2ccc(-c3nc4ccccc4s3)c(C)c2)c1	inconclusive: 3.16 µM [inhibitor, partial curve, poor fit]	–
O=C(NC(=S)Nn1cnnc1)c1ccc(F)cc1Cl	inactive	–
O=C(CCNS(=O)(=O)c1ccc(F)cc1)N1CCN(c2ncccn2)CC1	inactive	–
COc1ccc(NC(=O)Cn2nc(-c3ccccc3)c3cnc4ccc(C)cc4c32)cc1	inconclusive: 31.6 µM [inhibitor, single point]	–
Cc1ccc(C(=O)COC(=O)c2ccccc2C(=O)c2ccc(-c3ccccc3)cc2)cc1	inactive	–
O=C(CCc1nc2ccccc2s1)NCCc1ccc(C(F)(F)F)cc1	inactive	–
Cc1cc(C)c(C)c(SC(C)C(=O)NC2CCCC2)c1C (stereo not given)	inactive	–
CC(C)CNC(=O)c1ccc2c(=O)n(CCc3ccccc3)c(SCC#N)nc2c1	inactive	–
COc1ccc(NC(=O)Cn2cc(C(=O)c3ccncc3)c(=O)c3cc(C)ccc32)cc1Cl	inconclusive: 25.1 µM [inhibitor, partial curve, poor fit]	–
Cn1cc(-c2ccc(Cl)cc2)c2nc(CNc3ccccc3)cn2c1=O	inconclusive: 28.2 µM [inhibitor, partial curve, poor fit]	–
CN1[C@@H](c2ccc(Cl)cc2)[C@@H](C(=O)NCCc2cnc[nH]2)C[C@@]1(C)C(=O)O	inactive	–
Cc1ccc(-c2nc(CCNc3ncccc3C#N)co2)cc1	inconclusive: 22.4 µM [inhibitor, partial curve, poor fit]	–
Cc1cccc(Cn2c(SCc3ccc(C(=O)NCc4ccccc4)cc3)nc3cccnc32)c1	inconclusive: 35.5 µM [inhibitor, partial curve, poor fit]	–
Cc1c(Cn2ccnc2-c2cc(C#CCO)cs2)oc2ccccc12	inactive	–
CCCc1ccc(-c2cc(C(=O)NCCCn3ccnc3)c3ccccc3n2)cc1	inconclusive: 20 µM [inhibitor, partial curve, poor fit]	–
Cc1ccc(NC(=O)c2nnn(Cc3cccc(C(F)(F)F)c3)c2N)c(C)c1	inconclusive: 35.5 µM [inhibitor, partial curve, poor fit]	–
